{"source": "PubChem BioAssay (NCATS)", "note": "Where “and” joins values, the source holds several entries; their conditions need not be identical. Equal entries are not always repeated. The inconclusive results got no clear call from the source; some entries with a clear call stand among them for comparison. No potency is given beside an inconclusive call; the fits are too rough. Calls of active or inactive are those of the source. Calls follow the shape of the dose curve; as a rule, active = well fitted cell-killing curve with a large enough effect; inconclusive = small, poorly fitted or top-dose-only effect; inactive = flat fitted curve, though single readings scatter. % is scaled to controls: 0 for no effect and ±100 for the full control effect; tags tell the direction and shape of the fitted curve.", "data": [{"test": "Cellular viability qHTS for adrenocortical cancer (ACC) cell line SW-13 (AID 1963989); also: nearly all actives have a fitted effect of over 65% in size;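 as to activity (max response): cells grown in serum-free medium with ITS supplement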", "settings": "SW-13 ACC cells viability, CellTiter-Glo, 48 h; activity (max response): active compounds read low", "from_the_text": "PI: Naris Nilubol, MD Surgical Oncology Program, National Cancer Institute (NCI) National Institute of Health (NIH), Bethesda, Maryland Adrenocortical cancer (ACC) is a rare malignancy with poor survival outcomes and few treatment options. Currently, mitotane is the only FDA-approved therapy for ACC. Although adjuvant radiation therapy is rarely utilized, it has the potential to improve survival in select cases. Through a quantitative high-throughput drug screen (qHTS), we identified auranofin (AF), a thioredoxin reductase (TXNRD) inhibitor, as a promising candidate drug. This study aims to evaluate whether AF can enhance the efficacy of radiation therapy in the treatment of ACC. Two human ACC cell lines, SW-13 and NCI-H295R, were screened using the National Center for Advancing Translational Sciences (NCATS) Pharmaceutical Collection (NPC) and the Mechanism Interrogation PlatE (MIPE) library (~4,991 compounds). CellTiter-Glo (Cat # G7570, Promega, Madison, WI) was utilized to measure cell viability. Described herein are the results of the corresponding viability assay.\nPROTOCOL TABLE (as described by Inglese J, Shamu CE and Guy RK. 2007) SEQUENCE No. (e.g., 1, 2, 3, etc.); […] (e.g., Cells, Incubation, Reagent, etc.); VALUE; DESCRIPTION. 1; Cells; 5 uL; white, solid-bottom, 1536-well tissue-culture treated plates. 2; Time; overnight culture at 37C with 5% CO2. 3; Compounds and control; 23 nL; Kalypsis pin tool (Wako USA) equipped with a 1536-well pin head to transfer to the assay plates. 4; Time; 48 hours; 37C with 5% CO2. 5; Reagent; 4 uL; CellTiter-Glo luminescent substrate mix. 6; Time; 20 min at room temperature. 7; Detection; Luminescence; ViewLux plate reader NOTES (numbers refer to Sequence numbers above) 1. SW13 cells were harvested from a T175 flask and resuspended in ITS-supplemented DMEM serum-free medium at a concentration of 300 000 cells/mL. Then 5 uL of resuspended cells were dispensed into each well of white, solid-bottom, 1536-well tissue-culture-treated plates using a multidrop combi dispenser. The plates were covered with stainless steel gasket lids. 2-3. The plates were cultured overnight at 37C with 5% CO2. Twenty-three nL of compounds (eight selected concentrations from the NPC / MIPE) or positive control (10 mM stock of bortezomib) in DMSO was transferred to each well of the assay plate using a pin tool (Kalypsys, San Diego, CA, USA). The final concentration of the compounds in the 5 uL assay volume ranged from 0.5 nM to 46 uM. 4-6. After 48 hours of incubation at 37C and 5% CO2, 4 uL of CellTilter-Glo luminescent substrate mix (Promega, Madison, WI, USA) was added to each well. Then the plates were incubated for 20 minutes at room temperature. 7. After incubation, luminescence was measured using a ViewLux plate reader (PerkinElmer, Waltham, MA, USA) with a clear filter was used to measure the number of metabolically competent cells. To determine compound activity in the qHTS assay, the titration-response data for each sample was plotted and modeled by a four-parameter logistic fit yielding IC50 and efficacy (maximal response) values. […] REFERENCES: Inglese J, Shamu CE and Guy RK, Reporting data from high throughput screening of small molecule libraries, Nature Chemical Biology, 2007, 3(8): 438-441. doi.org/10.1038/nchembio0807-438.", "values": [{"smiles": "C[C@H]1[C@H](C)CC[C@]2(C(=O)O)CC[C@]3(C)C(=CC[C@@H]4[C@@]5(C)C[C@@H](O)[C@H](O)[C@@](C)(CO)[C@@H]5CC[C@]43C)[C@H]12", "Potency": "inconclusive [cytotoxic, single point]"}, {"smiles": "NC(=O)c1cccc(N)c1", "activity (max response)": "inactive: -2.32%"}, {"smiles": "CCCCCCCCCCCCCCCC(=O)O", "activity (max response)": "inactive: 8.9%"}, {"smiles": "CO[C@@H](C(=O)N1Cc2[nH]nc(NC(=O)c3ccc(N4CCN(C)CC4)cc3)c2C1)c1ccccc1", "Potency": "inconclusive [cytotoxic, full curve]"}, {"smiles": "CCOC(=O)c1cnc2c(cnn2CC)c1NN=C(C)C", "activity (max response)": "inactive: 7.42%"}, {"smiles": "CC1(C)CC(=O)c2c(C(F)(F)F)nn(-c3ccc(C(N)=O)c(NC4CCC(O)CC4)c3)c2C1", "note": "(stereo not given)", "Potency": "active: 0.224 µM"}, {"smiles": "O=C1N(c2ccccc2)c2ccccc2C1(Cc1ccncc1)Cc1ccncc1", "activity (max response)": "inactive: -5.03% and inactive: 7.18%"}, {"smiles": "O=C(O)[C@H](CC(=O)N1C[C@H]2CCCC[C@H]2C1)Cc1ccccc1", "activity (max response)": "inactive: 1.52%"}, {"smiles": "CCNC(=O)C#Cc1ccc2c(C(=Nc3ccc(CN(C)C)cc3)c3ccccc3)c(O)[nH]c2c1", "Potency": "inconclusive [cytotoxic, partial curve, poor fit]"}, {"smiles": "O=C(O)CCC(=O)c1ccc(-c2ccccc2)cc1", "activity (max response)": "inactive: 23%"}, {"smiles": "CC(CN1c2ccccc2Sc2ccccc21)N(C)C", "note": "(stereo not given)", "Potency": "inconclusive [cytotoxic, single point]"}, {"smiles": "Cn1cc(CNCC2CCN(c3ncc(C(=O)NO)cn3)CC2)c2ccccc21", "Potency": "active: 1.26 µM"}, {"smiles": "O=C(O)c1ccc(CCCc2ccc(OCCc3ccc(F)cc3)cc2)o1", "Potency": "active: 17.8 µM"}, {"smiles": "N#Cc1cc2cc(CN3CCC(Nc4ncnc5sc(CC(F)(F)F)cc45)CC3)c(O)cc2n1Cc1cn[nH]c1", "Potency": "active: 14.1 µM"}, {"smiles": "CCCCc1ccc(NS(=O)(=O)c2ccc(C)c(C(=O)N3CCN(c4cccc(C)c4C)CC3)c2)cc1", "Potency": "inconclusive [cytotoxic, single point]"}, {"smiles": "COc1ccc2c(Oc3ccc(NC(=O)c4c(C)n(CC(C)(C)O)n(-c5ccccc5)c4=O)cc3F)ccnc2c1", "Potency": "inconclusive [cytotoxic, single point]"}, {"smiles": "COc1nnc2ccc(N3CCC(c4ccc(OCCN5CCN(C)C(=O)[C@H]5C)cc4)CC3)nn12", "Potency": "inconclusive [cytotoxic, partial curve]"}, {"smiles": "Cc1c(NC(=O)OCC2COCCN2)cn2ncnc(Nc3ccc4c(cnn4Cc4cccc(F)c4)c3)c12", "note": "(stereo not given)", "Potency": "active: 22.4 µM"}, {"smiles": "CCCc1cc(C)[nH]c(=O)c1CNC(=O)c1cc(-c2ccnc(N3CCN(C)CC3)c2)cc2c1cnn2C(C)C", "Potency": "inconclusive [cytotoxic, single point]"}, {"smiles": "CCNCc1nc2c(N)nc3ccccc3c2n1CC(C)(C)O", "Potency": "inconclusive [cytotoxic, single point]"}, {"smiles": "Cc1cc(C)nc(NS(=O)(=O)c2ccc(N)cc2)n1", "activity (max response)": "inactive: 6.1%"}, {"smiles": "COc1cc2c(NC3CCN(C)CC3)nc(N3CCCN(C)CC3)nc2cc1OCCCN(C)C", "Potency": "inconclusive [cytotoxic, single point]"}, {"smiles": "COc1cc2ncnc(Nc3cc(Br)c(O)c(Br)c3)c2cc1OC", "Potency": "inconclusive [cytotoxic, single point]"}, {"smiles": "Cc1cnc(Nc2ccc(F)cc2Cl)nc1-c1c[nH]c(C(=O)NC(CO)c2cccc(Cl)c2)c1", "note": "(stereo not given)", "Potency": "inconclusive [cytotoxic, partial curve]"}, {"smiles": "Nc1c2ccccc2nc2ccccc12", "Potency": "active: 7.31 µM"}, {"smiles": "Cc1cc(N)c2cc(NC(=O)Nc3ccc4nc(C)cc(N)c4c3)ccc2n1", "Potency": "inconclusive [cytotoxic, single point]"}, {"smiles": "CCOC(=O)[C@@]1(CCCCCCOc2ccc(Cl)cc2)CO1", "Potency": "inconclusive [cytotoxic, partial curve]"}, {"smiles": "COc1ccc(S(=O)(=O)N(CCO)c2ccccc2CN(C)C/C=C/c2ccc(Cl)cc2)cc1", "Potency": "active: 10 µM"}, {"smiles": "Cn1nnc2c(C(N)=O)ncn2c1=O", "activity (max response)": "inactive: -0.0469% and inactive: 5.28%"}, {"smiles": "O=C(/C=C/C=C/c1ccc2c(c1)OCO2)N1CCCCC1", "Potency": "inconclusive [cytotoxic, partial curve]"}, {"smiles": "O=C(/C=C\\n1cnc(-c2cc(C(F)(F)F)cc(C(F)(F)F)c2)n1)NNc1ccccn1", "Potency": "active: 11.2 µM"}, {"smiles": "CCN(c1ccccc1)c1cc(NC)[n+](C)c(C)n1", "activity (max response)": "inactive: -0.574%"}, {"smiles": "COc1ccc(C(=O)CC(=O)c2ccc(C(C)(C)C)cc2)cc1", "activity (max response)": "inactive: 8.41% and inactive: -10.7%"}, {"smiles": "COc1ccc(CCN(C)CCCC(C#N)(c2cc(OC)c(OC)c(OC)c2)C(C)C)cc1OC", "note": "(stereo not given)", "Potency": "inconclusive [cytotoxic, single point]"}, {"smiles": "Cc1cn(-c2cc(NC(=O)c3ccc(C)c(Nc4nccc(-c5cccnc5)n4)c3)cc(C(F)(F)F)c2)cn1", "Potency": "inconclusive [cytotoxic, partial curve, poor fit]"}, {"smiles": "Cc1cc(Nc2nc(N[C@@H](C)c3ccc(F)cc3)c(C#N)cc2F)n[nH]1", "Potency": "active: 3.16 µM"}, {"smiles": "N#C/C(=C(/N)Sc1ccc(N)cc1)c1ccccc1C(F)(F)F", "Potency": "inconclusive [cytotoxic, partial curve]"}, {"smiles": "Cc1nc2ccc(-n3ncc(C(=O)c4cc5ccccc5[nH]4)c3N)cc2[nH]1", "Potency": "inconclusive [cytotoxic, partial curve]"}, {"smiles": "CS(=O)c1ccc(-c2nc(-c3ccc(F)cc3)c(-c3ccncc3)[nH]2)cc1", "note": "(stereo not given)", "Potency": "inconclusive [cytotoxic, partial curve, poor fit]"}, {"smiles": "CC(=O)O/N=C1/C(c2c(O)[nH]c3cc(Br)ccc23)=Nc2ccccc21", "Potency": "active: 25.1 µM"}]}]}
